From article doi:10.1101/2024.08.07.607021 come the findings set out here.

Chains of the proteins cited; added tags and fusions are not shown. Lines headed by an entry give the natural chain unless they say otherwise; changes in a name come on top.
UniProt Q01628: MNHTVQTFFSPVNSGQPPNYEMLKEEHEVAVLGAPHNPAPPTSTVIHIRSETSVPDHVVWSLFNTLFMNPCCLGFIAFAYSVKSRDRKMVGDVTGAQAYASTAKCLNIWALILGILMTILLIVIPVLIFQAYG

Results are given in words; binding and its absence hold for the method and conditions named. Binding seen in cells or lysates may run through a third protein. Some entries that bind do so weakly or less than the wild type.

This assay addresses T1, endogenous STX8 (HEK293T) (human (endogenous in HEK293T)) (UniProt Q9UNK0).
T1 sequence: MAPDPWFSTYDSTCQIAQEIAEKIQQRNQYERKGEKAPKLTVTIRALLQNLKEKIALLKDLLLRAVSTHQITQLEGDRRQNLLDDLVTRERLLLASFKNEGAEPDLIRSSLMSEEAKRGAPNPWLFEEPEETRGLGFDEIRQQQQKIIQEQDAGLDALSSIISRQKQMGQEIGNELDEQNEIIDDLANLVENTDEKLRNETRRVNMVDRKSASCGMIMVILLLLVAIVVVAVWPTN
The experiment in a line: co-IP; HEK293T stably expressing Empty Vector, IFITM3 WT-FLAG or IFITM3 G95L-FLAG, inoculated with IAV or medium for 18 hours; endogenous STX8 immunoprecipitated with anti-STX8; immunoblot with anti-STX8, anti-FLAG, anti-VAMP8, anti-VAMP7.

Take “IFITM3-FLAG G95L (from UniProt Q01628 1-133)”: the binding entry is on record as “binds”.

“IFITM3-FLAG WT (interferon-induced transmembrane protein 3) (from UniProt Q01628 1-133)”: the binding result is “binds”.
